Laboratory results as given in the supplement of paper PMC3334620.
Over roughly 33,000 sequences, “E-score (-0.5 to 0.5)” has its median near -0.021; the highest 2% begin near 0.32. The list shows a part of the results.

Biological target: T1, Zap1 (UniProt P47043)
T1 sequence: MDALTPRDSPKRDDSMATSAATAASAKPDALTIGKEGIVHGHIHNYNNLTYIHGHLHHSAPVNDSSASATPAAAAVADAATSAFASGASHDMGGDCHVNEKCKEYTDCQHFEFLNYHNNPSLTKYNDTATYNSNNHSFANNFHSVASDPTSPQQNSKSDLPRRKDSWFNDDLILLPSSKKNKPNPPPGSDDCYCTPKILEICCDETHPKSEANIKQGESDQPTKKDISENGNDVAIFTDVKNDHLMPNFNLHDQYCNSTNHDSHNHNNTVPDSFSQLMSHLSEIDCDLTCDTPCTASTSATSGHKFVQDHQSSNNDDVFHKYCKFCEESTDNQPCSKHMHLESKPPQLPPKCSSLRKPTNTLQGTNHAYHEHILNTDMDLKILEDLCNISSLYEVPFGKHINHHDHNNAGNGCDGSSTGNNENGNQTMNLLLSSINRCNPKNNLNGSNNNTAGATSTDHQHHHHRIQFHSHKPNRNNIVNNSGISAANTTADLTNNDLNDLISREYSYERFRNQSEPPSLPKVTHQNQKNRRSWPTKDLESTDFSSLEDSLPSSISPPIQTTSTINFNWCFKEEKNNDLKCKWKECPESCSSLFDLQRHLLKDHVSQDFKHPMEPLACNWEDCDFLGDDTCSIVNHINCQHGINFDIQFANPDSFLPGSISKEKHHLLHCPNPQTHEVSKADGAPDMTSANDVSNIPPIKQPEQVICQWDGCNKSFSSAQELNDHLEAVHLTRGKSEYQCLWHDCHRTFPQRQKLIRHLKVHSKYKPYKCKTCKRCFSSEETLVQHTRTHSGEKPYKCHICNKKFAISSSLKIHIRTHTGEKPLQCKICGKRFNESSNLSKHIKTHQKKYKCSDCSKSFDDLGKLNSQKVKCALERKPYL
Assay: PBM E-score (8-mer binding enrichment) (E-score (-0.5 to 0.5)); higher = stronger / more preferred TF binding; most listed sequences are background and not binding sites
Conditions: protein concentration: 200 nM; construct: GST-full length
Summary of the method: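 E-scores (a modified Wilcoxon-Mann-Whitney statistic) were assigned by the Universal PBM Analysis Suite to every ungapped eight-base word pooled with its reverse complement. The input came from universal all-10-mer Agilent arrays made double-stranded by primer extension and probed with GST-tagged yeast transcription factors at about 100-200 nM. Fluorescent anti-GST detected bound protein, and masliner normalised the scans.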

Row | Sequence | PBM E-score
1 | CCACCTCG | 0.02
2 | CACGACGG | -0.104
3 | CCGAAAGG | 0.0949
4 | CGATAGCC | 0.0302
5 | AGGTGAAT | 0.0514
6 | ACATCCAG | -0.052
7 | TGTATGAA | 0.0247
8 | GGGATTCA | 0.0113
9 | AACTTCAT | 0.0766
10 | CCTGTTCG | -0.0257
11 | CTCGTATA | -0.0458
12 | AGAGAAAC | -0.0339
13 | CCAATGCA | -0.0366
14 | GTGACTGA | -0.00258
15 | AACCGGCC | 0.151
16 | GCGAGAAA | 0.0526
17 | GTAAACGA | 0.0465
18 | CTGGGGCA | -0.251
19 | TAACGTCA | 0.0475
20 | AGAACCCC | 0.294
21 | AAGGCGCA | -0.0748
22 | AGTGCTAT | -0.339

Row | Sequence | PBM E-score
23 | CAATGAGG | -0.0414
24 | CAATAGGC | -0.306
25 | CTGTATGC | -0.14
26 | GAAAGATC | -0.146
27 | GGGGGGAA | -0.411
28 | GAGGGGCA | -0.281
29 | GGAAGGTA | 0.158
30 | GAGTAACC | 0.399
31 | GCCTCGTA | 0.0499
32 | GAACGTGA | 0.0105
33 | ACCCTTTC | 0.298
34 | ACAGACGC | -0.197
35 | CACCTGCA | -0.0838
36 | GTAGCCGA | -0.0612
37 | GACGCTCC | -0.265
38 | CATGCTAA | 0.059
39 | CGTCGGAG | -0.0618
40 | GGGCGCCC | -0.0198
41 | CACGTCTC | -0.172
42 | ATAAACCG | 0.0813
43 | CTAATGCA | 0.132
44 | GCGCACCC | -0.0431

Row | Sequence | PBM E-score
45 | GCCTGAAA | -0.142
46 | ACACACGG | 0.00569
47 | AACCGACC | 0.0414
48 | CAACGCAG | -0.145
49 | ATGCTGAG | -0.211
50 | GAATAACC | 0.438
51 | AATAAGCC | -0.0972
52 | CGCAGTTA | -0.00805
53 | ACTGGTCT | -0.11
54 | ATGAGCAT | 0.049
55 | CCGCCTGA | -0.0511
56 | CAGGTTTA | -0.0228
57 | TAAGACGA | -0.0597
58 | ATGAGAAA | 0.0758
59 | AGCGATGA | 0.0915
60 | ACTAGACT | -0.138
61 | AGTGTCAA | 0.0427
62 | ACAAAGTC | -0.039
63 | ACGGTGCC | -0.0533
64 | CAGATATC | -0.0643
65 | CCGCTGAC | 0.0922
66 | AGTGAAAA | 0.0524

Row | Sequence | PBM E-score
67 | ACCTAGGT | 0.26
68 | CCCGCACG | -0.0186
69 | GTATCGCA | 0.0307
70 | GAATCACC | 0.151
71 | CGGGACCG | -0.142
72 | TCAATCGA | -0.0137
73 | ATCCCAAA | 0.0704
74 | CAGAGTGG | -0.0992
75 | AGAAACAG | 0.0469
76 | ACGTAGTG | -0.211
77 | AGACGCCT | -0.214
78 | CATTAGGG | 0.228
79 | AAAGTAGT | 0.0501
80 | GATTACCA | 0.141
81 | ACATCACA | 0.00816
82 | GCCGATTA | 0.0151
83 | GCGTCAGA | -0.171
84 | AACTACTA | 0.0861
85 | CCAGGCCC | -0.0933
86 | ATTGCCCC | -0.236
